This passage reports Kd results from patent publication US20190330336A1.

First the molecules themselves.
B1: SRP1558-A06 (scFv)
chain: EVQLLESGGGLVQPGGSLRLSCAASGFTFSESTMSWVRQAPGKGLEWVGFITSDSGTTDYADSVKGRFTISRDNSKNTLYLQMNSLRAEDTAVYYCAKVFEGGVRPFSDYWGQGTLVTVSSGGGGSGGGGSGGGGSEIVLTQSPGTLSLSPGERATLSCRASQSVSSNPLAWYQQKPGQAPRLLIYGASSRATGIPDRFSGSGSGTDFTLTISRLEPEDFAVYYCQQYMAGPPTFGQGTKVEIKAAGSDQ[human IgG1 Fc with changes cut from this listing]
B2: SRP1558-F01 (scFv)
chain: EVQLLESGGGLVQPGGSLRLSCAASGFTFPDSSMSWVRQAPGKGLEWVGVITDNSGNTDYADSVKGRFTISRDNSKNTLYLQMNSLRAEDTAVYYCAKVFEGGVRPYSDYWGQGTLVTVSSGGGGSGGGGSGGGGSEIVLTQSPGTLSLSPGERATLSCRASQSVSSGNPAWYQQKPGQAPRLLIYGASSRATGIPDRFSGSGSGTDFTLTISRLEPEDFAVYYCQQYTAGPPTFGQGTKVEIKAAGSDQ[human IgG1 Fc with changes cut from this listing]
B3: SRP1448-D09 (scFv)
chain: EVQLLESGGGLVQPGGSLRLSCAASGFTFTDSSMSWVRQAPGKGLEWVGVITGNSGTTDYADSVKGRFTISRDNSKNTLYLQMNSLRAEDTAVYYCAKVYEGGVRPYSDYWGQGTLVTVSSGGGGSGGGGSGGGGSEIVLTQSPGTLSLSPGERATLSCRASQSVSSSYLAWYQQKPGQAPRLLIYGASSRATGIPDRFSGSGSGTDFTLTISRLEPEDFAVYYCQQDTAGPPTFGQGTKVEIKAAGSDQ[human IgG1 Fc with changes cut from this listing]

The test concerns the target cynomolgus LAG3 on 293T cells (cynomolgus monkey). Nature of the test: flow cytometry on 293T cells expressing cynomolgus LAG3. (In general: In flow cytometry, cells or beads pass a laser one at a time.)
Take B1: the Kd (commonly the concentration at which binding is half-saturated) is 0.3 nM. For the molecule B2, the Kd stood at 0.7 nM. Molecule B3 showed a Kd of 1.6 nM.
